Reference: PubChem BioAssay AID1461 (National Center for Advancing Translational Sciences (NCATS), 2008)
Screen size: about 220,000 compounds; about 2,300 (1%) were called active. The inconclusive results got no clear call from the source; some entries with a clear call stand among them for comparison. The call rests on the fitted dose curve; in most records, active means well fitted inhibition curve with a large enough effect; inconclusive means small, poorly fitted or top-dose-only effect, or effect the other way; inactive means no such curve, though single readings can be large or run the other way. Potencies of inconclusive entries are doubtful fits and often do not repeat.
Further: nearly all actives have a fitted effect of over 50% in size.
On the % scale 0 is the no-effect control and ±100 the full control effect; potency means the concentration at half of the fitted maximal effect; tags describe the fitted curve by direction and shape.

What follows are compounds tested against Neuropeptide S receptor (Homo sapiens) (UniProt Q6W5P4) (assay: qHTS Assay for Antagonists of the Neuropeptide S Receptor: cAMP Signal Transduction). Conditions: CHO-NPSR cells, cAMP TR-FRET, antagonist mode; activity change, negative = inhibition: at 38.3 µM (top of the series) unless noted.
Chain of UniProt Q6W5P4 (Q6W5P4 whole entry, looked up): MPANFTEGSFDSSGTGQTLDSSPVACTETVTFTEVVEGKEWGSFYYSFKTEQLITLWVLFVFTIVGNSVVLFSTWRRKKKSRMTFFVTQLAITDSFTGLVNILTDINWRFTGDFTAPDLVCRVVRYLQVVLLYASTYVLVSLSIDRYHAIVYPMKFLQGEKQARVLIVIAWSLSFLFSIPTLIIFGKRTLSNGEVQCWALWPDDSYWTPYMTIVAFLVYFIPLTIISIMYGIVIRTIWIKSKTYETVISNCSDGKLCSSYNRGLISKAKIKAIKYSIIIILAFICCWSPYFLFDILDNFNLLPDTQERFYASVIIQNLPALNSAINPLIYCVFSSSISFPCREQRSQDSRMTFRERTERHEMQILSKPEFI
For `Oc1[nH]c2ccc(Br)cc2c1N=NC(=S)NCC1CCCO1` (configuration not stated), the Potency was inconclusive: 12.6 µM [inhibitor, single point]. With `C[n+]1cc2c3c(ccc2c2ccc4cc5c(cc4c21)OCO5)OCO3` the Potency was inconclusive: 25.1 µM [inhibitor, single point]. For `O=C(Nc1ccccc1C(=O)NC(Cc1ccccc1)C(=O)NC1CCCCCC1)c1ccccc1` (configuration not stated), the “activity change, negative = inhibition” value was inactive: -20.2% [at 46.1 µM]. For `O=S(=O)(c1ccccc1)c1cnc(-c2ccccc2)nc1N1CCCC1`, the Potency was inconclusive: 10 µM [activator, partial curve]. `Cc1cccc(NS(=O)(=O)c2cc(C(=O)N3CCc4ccccc4C3)ccc2Cl)c1C` was tested, and the Potency was inconclusive: 12.6 µM [inhibitor, partial curve]. For `COc1cc(C(=O)N/N=C/c2sc(=O)n(-c3ccccc3)c2Cl)cc(OC)c1OC`, the “activity change, negative = inhibition” value was inactive: 29.4%. For `COc1ccc(N=N/C(=C\O)C(=O)c2cccs2)cc1`, the Potency was inconclusive: 12.6 µM [inhibitor, single point]. For `Oc1c(C(c2ccco2)N2CCN(C(c3ccccc3)c3ccccc3)CC2)sc2ncnn12` (configuration not stated), the Potency was inconclusive: 10 µM [inhibitor, partial curve]. For `CN(NC(=O)c1ccc(Cl)cc1)c1cccc(Cl)n1`, the “activity change, negative = inhibition” value was inactive: -3.59% [at 46.1 µM]. With `N#Cc1nc(COc2ccc(Cl)cc2)oc1NCc1ccc2c(c1)OCO2` the Potency was inconclusive: 31.6 µM [inhibitor, single point]. `Cc1ccc(C(c2nnnn2Cc2ccccc2)N2CCN(Cc3ccccc3)CC2)cc1` (configuration not stated) was tested, and the Potency was inconclusive: 0.199 µM [inhibitor, full curve]. For `Cc1ccc2occ(C(c3nnnn3C3CCCC3)N3CCN(C(=O)c4ccco4)CC3)c(=O)c2c1` (configuration not stated), the Potency was inconclusive: 15.8 µM [inhibitor, partial curve, poor fit]. For `COC(=O)/C=C/S(=O)(=O)c1ccc(NC(C)=O)cc1`, the Potency was inconclusive: 12.6 µM [inhibitor, single point]. For `COc1ccccc1NC(=O)c1cc2ccccc2o/c1=N\O`, the “activity change, negative = inhibition” value was inactive: -17.5% [at 46.1 µM]. `COc1ccc(CNc2ccc(Br)cc2)cc1` was tested, and the “activity change, negative = inhibition” value was inactive: -44.3%. For `CSCCC(NS(=O)(=O)c1ccc(Cl)cc1)C(=O)OCc1cccc(Cl)c1` (configuration not stated), the “activity change, negative = inhibition” value was inactive: -33.2%. `COc1ccc(-c2nn3c(-c4ccccc4)nnc3s2)cc1` was tested, and the Potency was inconclusive: 0.126 µM [inhibitor, full curve]. In the case of `Cc1cc2cc(CN(C(=O)C3CC3)C3CCCC3)c3nnnn3c2cc1C`, the Potency was inconclusive: 12.6 µM [inhibitor, single point]. `Cc1cc(SCC(=O)NC(=O)NCc2ccco2)nc2c(C)cccc12` was tested, and the Potency was inconclusive: 10 µM [inhibitor, single point]. `Cn1nc(C(C)(C)C)c([N+](=O)[O-])c1C(=O)Nc1cccc2ccccc12` was tested, and the Potency was inconclusive: 25.1 µM [inhibitor, single point]. `CCN(CC)c1ccc(/C=N/Nc2ccccc2)c(O)c1` was tested, and the “activity change, negative = inhibition” value was inactive: -19.9% [at 46.1 µM]. `CS(=O)c1ccccc1-c1nc(-c2cc(C(F)(F)F)cc(C(F)(F)F)c2)no1` (configuration not stated) was tested, and the Potency was inconclusive: 12.6 µM [inhibitor, single point]. In the case of `CCCCNC(C(=O)Nc1cccc(S(=O)(=O)N2CCOCC2)c1)c1ccccc1` (configuration not stated), the “activity change, negative = inhibition” value was inactive: -17.8%. With `Cc1nnc(NC(=O)c2ccc(S(=O)(=O)N(C)Cc3ccccc3)cc2)o1` the “activity change, negative = inhibition” value was inactive: -1.67% [at 46.1 µM]. `O=C(Nc1ccc2c(c1)OCO2)Nc1ccc(Br)cn1` was tested, and the Potency was inconclusive: 5.01 µM [inhibitor, single point]. `CCCC(=O)NC(=S)Nc1ccc(S(=O)(=O)Nc2ccc(OCC)cc2)cc1` was tested, and the Potency was inconclusive: 10 µM [inhibitor, single point]. With `CCOc1ccc(NC(=O)CSc2nnc(C)n2CC2CCCO2)cc1` (configuration not stated) the Potency was inconclusive: 5.01 µM [inhibitor, single point]. For `O=c1c(-c2nnc(SCc3ccc(Cl)cc3)o2)cccn1Cc1ccccc1`, the Potency was inconclusive: 12.6 µM [inhibitor, single point]. For `CC(C)(C)c1nnc2sc(SCCN3C(=O)c4ccccc4C3=O)nn2c1=O`, the activity change, negative = inhibition was inactive: 2.58% [at 7.67 µM]. With `Cc1ccc(C)c(NC(=O)c2cc(-c3cccnc3)nc3ccccc23)c1` the “activity change, negative = inhibition” value was inactive: -44.3%. With `CCOc1nc(N2CCCCC2)nc(-n2cc(-c3ccccc3)nn2)n1` the Potency was inconclusive: 6.31 µM [inhibitor, single point]. `Cc1ccccc1C(=O)NC(=S)NCCC1=CCCCC1` was tested, and the Potency was inconclusive: 15.8 µM [activator, single point]. With `CC(C)CCn1c(Sc2nc3ccccc3s2)nc2c1c(=O)[nH]c(=O)n2C` the Potency was inconclusive: 10 µM [inhibitor, single point]. `O=C(O)CCc1ccc(-c2cccs2)n1CCC(=O)O` was tested, and the “activity change, negative = inhibition” value was inactive: -23.3% [at 46.1 µM]. For `COc1ccc(CC(=O)N2CC3(C)CC2CC(C)(C)C3)cc1OC` (configuration not stated), the Potency was inconclusive: 0.0251 µM [inhibitor, full curve, poor fit]. For `Nc1ncnc(NCc2ccccc2)c1[N+](=O)[O-]`, the “activity change, negative = inhibition” value was inactive: 10.3%. For `CN(C(=O)c1ccccc1Cl)C1CCCCC1`, the “activity change, negative = inhibition” value was inactive: -13.2% [at 46.1 µM]. In the case of `CCc1ccc(NC(=O)CSC2=C(C#N)C(c3ccco3)C3=C(CCCC3=O)N2)cc1` (configuration not stated), the Potency was inconclusive: 15.8 µM [inhibitor, partial curve, poor fit]. In the case of `Cc1ccc([N+](=O)[O-])cc1N`, the “activity change, negative = inhibition” value was inactive: 5.56%. In the case of `CCCn1c(O)c(N=NC(=O)c2cccnc2)c2cc(Br)ccc21`, the “activity change, negative = inhibition” value was inactive: 8.77%. With `Cc1ccc(NC(=S)NC(NC(=O)c2ccccc2C)C(Cl)(Cl)Cl)c(C)c1` (configuration not stated) the Potency was inconclusive: 25.1 µM [inhibitor, single point]. For `COc1ccc(-c2c(C#N)sc(C(N)=O)c2-c2ccc(OC)cc2)cc1`, the Potency was inconclusive: 10 µM [activator, partial curve]. In the case of `O=C(COc1ccccc1)N1CCN=C1SCc1cccnc1`, the activity change, negative = inhibition was inconclusive: -35.8% [inhibitor] [at 46.1 µM]. `Cc1ccc(C(=O)c2ccccc2C(=O)O)cc1C` was tested, and the “activity change, negative = inhibition” value was inactive: 2.63%. With `Cc1ccc(S(=O)(=O)CCSc2cccc(C(=O)Nc3ccccc3C(=O)O)c2)cc1` the “activity change, negative = inhibition” value was inactive: -12.7%. For `COc1ccc2c(c1)CCc1c(C(=O)Nc3c(C)nn(Cc4ccccc4)c3C)noc1-2`, the Potency was inconclusive: 10 µM [inhibitor, single point]. With `Cc1ccc2[nH]c(=O)c(C(c3nnnn3CCc3ccccc3)N3CCOCC3)cc2c1` (configuration not stated) the “activity change, negative = inhibition” value was inactive: -13.3% [at 46.1 µM].
